From paper PMC9911399, “Two distinct binding modes provide the RNA-binding protein RbFox with extraordinary sequence specificity”
Where a chain is given by its changes, count along the chain named. The list shows a part of the results.

T1: RBFOX1 RRM RbFoxmut (Fox-RRM*) (Homo sapiens, UniProt Q9NWB1 109-208, R118D;E147R;N151S;E152T)
T1 sequence: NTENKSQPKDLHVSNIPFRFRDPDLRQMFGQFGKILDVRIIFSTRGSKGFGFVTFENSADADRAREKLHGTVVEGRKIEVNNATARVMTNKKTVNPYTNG

B1: UGAGACA (DNA:RNA)
RNA: GGGAGACCGGAAUUCAGAUUGUCCUGAGACAUUAAAUCCCGUCGUAGCCACCA
DNA 1: CAATCTGAATTCCGGTCTCCC
DNA 2: TGGTGGCTACGACGGGATT
B2: AUUCUGA (DNA:RNA)
RNA: B1 RNA with U25A, G26U, A27U, G28C, A29U, C30G
DNA 1: CAATCTGAATTCCGGTCTCCC
DNA 2: TGGTGGCTACGACGGGATT
B3: UAGGACC (DNA:RNA)
RNA: B1 RNA with G26A, A27G, A31C
DNA 1: CAATCTGAATTCCGGTCTCCC
DNA 2: TGGTGGCTACGACGGGATT
B4: CCUUGAG (DNA:RNA)
RNA: GGGAGACCGGAAUUCAGAUUGUCCCCUUGAGUUAAAUCCCGUCGUAGCCACCA
DNA 1: CAATCTGAATTCCGGTCTCCC
DNA 2: TGGTGGCTACGACGGGATT
B5: GGGGCAG (DNA:RNA)
RNA: B4 RNA with C25G, C26G, U27G, U28G, G29C
DNA 1: CAATCTGAATTCCGGTCTCCC
DNA 2: TGGTGGCTACGACGGGATT
B6: ACUCAGC (DNA:RNA)
RNA: B4 RNA with C25A, U28C, G29A, A30G, G31C
DNA 1: CAATCTGAATTCCGGTCTCCC
DNA 2: TGGTGGCTACGACGGGATT
B7: UAGCCGA (DNA:RNA)
RNA: B1 RNA with G26A, A27G, G28C, A29C, C30G
DNA 1: CAATCTGAATTCCGGTCTCCC
DNA 2: TGGTGGCTACGACGGGATT
B8: GCUCAAC (DNA:RNA)
RNA: B4 RNA with C25G, U28C, G29A, G31C
DNA 1: CAATCTGAATTCCGGTCTCCC
DNA 2: TGGTGGCTACGACGGGATT
B9: UAGACAG (DNA:RNA)
RNA: B4 RNA with C25U, C26A, U27G, U28A, G29C
DNA 1: CAATCTGAATTCCGGTCTCCC
DNA 2: TGGTGGCTACGACGGGATT
B10: CGCGAGG (DNA:RNA)
RNA: B1 RNA with U25C, A27C, C30G, A31G
DNA 1: CAATCTGAATTCCGGTCTCCC
DNA 2: TGGTGGCTACGACGGGATT
B11: GGUAAAU (DNA:RNA)
RNA: B4 RNA with C25G, C26G, U28A, G29A, G31U
DNA 1: CAATCTGAATTCCGGTCTCCC
DNA 2: TGGTGGCTACGACGGGATT
B12: CGCGUGA (DNA:RNA)
RNA: B1 RNA with U25C, A27C, A29U, C30G
DNA 1: CAATCTGAATTCCGGTCTCCC
DNA 2: TGGTGGCTACGACGGGATT
B13: GUGCGUU (DNA:RNA)
RNA: B4 RNA with C25G, C26U, U27G, U28C, A30U, G31U
DNA 1: CAATCTGAATTCCGGTCTCCC
DNA 2: TGGTGGCTACGACGGGATT
B14: UCAAUAU (DNA:RNA)
RNA: B4 RNA with C25U, U27A, U28A, G29U, G31U
DNA 1: CAATCTGAATTCCGGTCTCCC
DNA 2: TGGTGGCTACGACGGGATT
B15: AGUGGAC (DNA:RNA)
RNA: B4 RNA with C25A, C26G, U28G, G31C
DNA 1: CAATCTGAATTCCGGTCTCCC
DNA 2: TGGTGGCTACGACGGGATT
B16: GAUGGUC (DNA:RNA)
RNA: B4 RNA with C25G, C26A, U28G, A30U, G31C
DNA 1: CAATCTGAATTCCGGTCTCCC
DNA 2: TGGTGGCTACGACGGGATT
B17: UGGCUGC (DNA:RNA)
RNA: B1 RNA with A27G, G28C, A29U, C30G, A31C
DNA 1: CAATCTGAATTCCGGTCTCCC
DNA 2: TGGTGGCTACGACGGGATT
B18: GCCCCUU (DNA:RNA)
RNA: B4 RNA with C25G, U27C, U28C, G29C, A30U, G31U
DNA 1: CAATCTGAATTCCGGTCTCCC
DNA 2: TGGTGGCTACGACGGGATT
B19: CGGGCUU (DNA:RNA)
RNA: B1 RNA with U25C, A27G, A29C, C30U, A31U
DNA 1: CAATCTGAATTCCGGTCTCCC
DNA 2: TGGTGGCTACGACGGGATT
B20: CUGCAAG (DNA:RNA)
RNA: B4 RNA with C26U, U27G, U28C, G29A
DNA 1: CAATCTGAATTCCGGTCTCCC
DNA 2: TGGTGGCTACGACGGGATT
B21: GCCGUCU (DNA:RNA)
RNA: B1 RNA with U25G, G26C, A27C, A29U, A31U
DNA 1: CAATCTGAATTCCGGTCTCCC
DNA 2: TGGTGGCTACGACGGGATT
B22: UGGCGAC (DNA:RNA)
RNA: B4 RNA with C25U, C26G, U27G, U28C, G31C
DNA 1: CAATCTGAATTCCGGTCTCCC
DNA 2: TGGTGGCTACGACGGGATT
B23: AAUGGAA (DNA:RNA)
RNA: B4 RNA with C25A, C26A, U28G, G31A
DNA 1: CAATCTGAATTCCGGTCTCCC
DNA 2: TGGTGGCTACGACGGGATT
B24: CCUUUGA (DNA:RNA)
RNA: B4 RNA with G29U, A30G, G31A
DNA 1: CAATCTGAATTCCGGTCTCCC
DNA 2: TGGTGGCTACGACGGGATT
B25: GCAUACG (DNA:RNA)
RNA: B4 RNA with C25G, U27A, G29A, A30C
DNA 1: CAATCTGAATTCCGGTCTCCC
DNA 2: TGGTGGCTACGACGGGATT
B26: GUCUAGA (DNA:RNA)
RNA: B1 RNA with U25G, G26U, A27C, G28U, C30G
DNA 1: CAATCTGAATTCCGGTCTCCC
DNA 2: TGGTGGCTACGACGGGATT
B27: GGGUGCU (DNA:RNA)
RNA: B4 RNA with C25G, C26G, U27G, A30C, G31U
DNA 1: CAATCTGAATTCCGGTCTCCC
DNA 2: TGGTGGCTACGACGGGATT
B28: CUAGCCC (DNA:RNA)
RNA: B1 RNA with U25C, G26U, A29C, A31C
DNA 1: CAATCTGAATTCCGGTCTCCC
DNA 2: TGGTGGCTACGACGGGATT
B29: AACAUAG (DNA:RNA)
RNA: B4 RNA with C25A, C26A, U27C, U28A, G29U
DNA 1: CAATCTGAATTCCGGTCTCCC
DNA 2: TGGTGGCTACGACGGGATT
B30: ACAUCUU (DNA:RNA)
RNA: B4 RNA with C25A, U27A, G29C, A30U, G31U
DNA 1: CAATCTGAATTCCGGTCTCCC
DNA 2: TGGTGGCTACGACGGGATT
B31: UCGGCAA (DNA:RNA)
RNA: B1 RNA with G26C, A27G, A29C, C30A
DNA 1: CAATCTGAATTCCGGTCTCCC
DNA 2: TGGTGGCTACGACGGGATT

The binders below were run against T1, RBFOX1 RRM RbFoxmut (Fox-RRM*) (assay: EMSA; HiTS-Eq, 1 nM pool, 10 min; buffer printed only for the single-RNA assays: 10 mM Tris pH 7.5, 150 mM NaCl, 3.4 mM EDTA, 0.001% NP-40, 30 C). Conditions: tags: His6 N-terminal (pET28a); label: 5' 32P.
Outline: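 Purified RbFox RRM (wild type or mutant) was equilibrated for 10 min in 50 µL with 1 nM of a 5′-radiolabelled pool of RNA with 7 randomized nucleotides, its flanks annealed to DNA oligonucleotides, across increasing protein concentrations. Free RNA was separated by 8% native PAGE, excised, reverse-transcribed, PCR-barcoded and sequenced on an Illumina HiSeq 2500. Relative association constants came from read-count changes of each variant against the control reaction, normalised to the cognate motif.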

| Binder | binding signal |
| --- | --- |
| B1 | 0.0773 KA relative to UGCAUGU |
| B2 | 0.0695 KA relative to UGCAUGU |
| B3 | 0.0753 KA relative to UGCAUGU |
| B4 | 0.121 KA relative to UGCAUGU |
| B5 | 0.116 KA relative to UGCAUGU |
| B6 | 0.0993 KA relative to UGCAUGU |
| B7 | 0.0645 KA relative to UGCAUGU |
| B8 | 0.0746 KA relative to UGCAUGU |
| B9 | 0.0408 KA relative to UGCAUGU |
| B10 | 0.108 KA relative to UGCAUGU |
| B11 | 0.0579 KA relative to UGCAUGU |
| B12 | 0.112 KA relative to UGCAUGU |
| B13 | 0.146 KA relative to UGCAUGU |
| B14 | 0.0958 KA relative to UGCAUGU |
| B15 | 0.0881 KA relative to UGCAUGU |
| B16 | 0.166 KA relative to UGCAUGU |

| Binder | binding signal |
| --- | --- |
| B17 | 0.194 KA relative to UGCAUGU |
| B18 | 0.0605 KA relative to UGCAUGU |
| B19 | 0.0788 KA relative to UGCAUGU |
| B20 | 0.0851 KA relative to UGCAUGU |
| B21 | 0.0615 KA relative to UGCAUGU |
| B22 | 0.0748 KA relative to UGCAUGU |
| B23 | 0.11 KA relative to UGCAUGU |
| B24 | 0.0835 KA relative to UGCAUGU |
| B25 | 0.137 KA relative to UGCAUGU |
| B26 | 0.0876 KA relative to UGCAUGU |
| B27 | 0.115 KA relative to UGCAUGU |
| B28 | 0.089 KA relative to UGCAUGU |
| B29 | 0.0789 KA relative to UGCAUGU |
| B30 | 0.0823 KA relative to UGCAUGU |
| B31 | 0.0654 KA relative to UGCAUGU |
